From PubChem BioAssay AID463173 (ICCB-Longwood Screening Facility, Harvard Medical School, 2010)
Among all 52,000 compounds or so, about 1,700 (3.3%) were called active. Rule as the data show it: active = survival mostly below about 52% (no sharp cut-off); inactive = mostly above about 56%. The list shows a part of the results.

These compounds were tested on Wild type (assay: growth inhibition of S. aureus wild type versus tarO mutant, primary screen, teichoic acid synthesis inhibitors, RN4220, OD600 (AID 463173)). Conditions: S. aureus RN4220 wild type/DeltatarO growth, OD600, 18 h, stronger effect = lower value, screened at 18.75 µg/mL (by protocol).

| Compound | survival |
| --- | --- |
| CCC(C)NC(=O)c1sc2nc(C)c(C(=O)Nc3ccc(C)cc3C)c(-c3ccccc3Cl)c2c1N (stereo not drawn) | inactive: 75% |
| Nc1ccc2nc(CCc3ccccc3)[nH]c2c1 | inactive: 106% |
| COc1ccc(NC(=O)c2cnc(N3CCCCC3)c3ccccc23)cc1Cl | inactive: 83% |
| Nc1nnc(CCN2C(=O)CSC2=O)s1 | inactive: 106% |
| CCOC(=O)c1cccc2c1N[C@@H](c1ccc(F)cc1)[C@H]1CC=C[C@@H]21 | active: 12% |
| Cc1ccc(CCNC(=O)c2ccc3c(=O)n(-c4ccccc4)c(=O)[nH]c3c2)cc1 | inactive: 74% |
| Cn1cc(S(=O)(=O)N2CCCCC2)cc1C(=O)Nc1cccc(C#N)c1 | inactive: 129% |
| c1ccc(Cn2nnnc2CN2CCCC2)cc1 | inactive: 113% |
| Cc1ccc(CNC(=O)Cn2c(=O)n(Cc3ccc(F)cc3)c(=O)c3sc4ccccc4c32)cc1 | inactive: 82% |
| c1ccc2c(c1)CC(N1CCCCC1)c1ccccc1N2 (stereo not drawn) | inactive: 85% |
| COc1ccc(C(=O)/C=C\Nc2ccc(S(=O)(=O)N=C(N)N)cc2)cc1OC | inactive: 114% |
| O=C(Nc1ccc(Cl)cc1)N1CCC(c2ccccc2)C1 (stereo not drawn) | inactive: 74% |
| COc1cccc(N2CC(NC(=O)/C=C\c3ccc(OC)c(OC)c3)CC2=O)c1 (stereo not drawn) | inactive: 73% |
| CCC(C)NC(=O)CN1C(=O)COc2ccc(S(=O)(=O)N3CCOCC3)cc21 (stereo not drawn) | inactive: 81% |
| CCOc1ccccc1NC(=O)c1c(NCc2sccc2C)sc2c1CCC(C)C2 (stereo not drawn) | inactive: 120% |
| Cc1cc(-c2ccc(S(=O)(=O)Nc3ccc(Cl)cc3C)cc2)on1 | inactive: 87% |
| CCCN(C(=O)Cn1ncc2c([nH]c3ccc(C)cc32)c1=O)c1ccccc1C | inactive: 59% |
| Cc1cccc(Oc2ccc3c(c2)Oc2ccccc2NC3=O)c1 | inactive: 83% |
| Cc1ccc(NC(=O)Cn2cc(S(=O)(=O)N3CCC(C)CC3)c3ccccc3c2=O)c(Br)c1 | inactive: 72% |
| CCCCN(CCCNC(=O)c1c(C)oc2nc[nH]c(=O)c12)Cc1ccccc1 | inactive: 71% |

| Compound | survival |
| --- | --- |
| COc1ccc(CNC(=O)c2cnn(-c3ccc(F)cc3)c2-n2cccc2)cc1 | inactive: 113% |
| CCN(CC)c1ncccc1C(=O)NCc1cccs1 | inactive: 107% |
| Cc1ccc(Nc2c(-c3cccnc3)nc3ccc(Br)cn23)cc1 | inactive: 73% |
| CNC(=O)c1c(NC(=O)c2ccc(S(=O)(=O)N3CCCCC3C)cc2)sc2c1CCC2 (stereo not drawn) | inactive: 65% |
| COc1ccc(-c2nnc(SCC(=O)N(C)Cc3ccccc3)o2)cc1OC | inactive: 84% |
| O=S(=O)(Nc1cccc(-c2ccc(N3CCCC3)nn2)c1)c1ccc(F)c(C(F)(F)F)c1 | inactive: 82% |
| CCc1cc2cc(C)cc(C)c2nc1SCC(=O)N1CCN(C(=O)c2ccco2)CC1 | inactive: 104% |
| CCOC(=O)c1cc(-c2ccccc2)n(-c2cccc(C(=O)Nc3cccc(C(C)=O)c3)c2)c1C | inactive: 70% |
| COc1cccc(N2CCN(C(=O)CN3C(=O)COc4ccc(S(=O)(=O)N5CCC(C)CC5)cc43)CC2)c1 | inactive: 81% |
| Cc1oc2c(c(C)cc3oc(=O)c(CC(=O)NCc4ccccc4)c(C)c32)c1C | inactive: 85% |
| COc1ccc(C)cc1-n1nnc(C(=O)Nc2cccc(SC)c2)c1C | inactive: 88% |
| Cc1c(Cl)cccc1NC(=O)Cn1cc2c(n1)CCCC2 | inactive: 89% |
| COc1ccc(C(=O)NCC(c2cccnc2)N2CCc3ccccc32)cc1OC (stereo not drawn) | inactive: 82% |
| Cc1cccc(CNC(=O)c2ccc(NC(=O)N3CCSc4ccccc43)cc2)c1 | inactive: 75% |
| CC1CCc2c(sc(NC(=O)COc3ccccc3C(C)(C)C)c2C#N)C1 (stereo not drawn) | inactive: 84% |
| O=C(CSc1nc2c([nH]c3ccccc32)c(=O)n1-c1ccccc1)N1CCCCCC1 | inactive: 78% |
| O=C(NCCCN1CCN(c2ccccc2F)CC1)c1cc2c(s1)-c1ccccc1OC2 | active: 11% |
| O=C(O)c1ccc(NC(=O)c2cc3ccccc3o2)cc1 | inactive: 72% |
| Cc1ccc(NC(=O)Cn2c(SCc3ccc(F)cc3)nc3cccnc32)cc1F | inactive: 54% |
| CCCCOc1ccc(C(=O)N/C(=C\c2ccc(Br)cc2)C(=O)NC2CCCCC2)cc1 | inactive: 75% |

| Compound | survival |
| --- | --- |
| CSCCC(NS(=O)(=O)c1ccc2c(c1)oc(=O)n2C)C(=O)N1CCN(c2ccc(F)cc2)CC1 (stereo not drawn) | inactive: 88% |
| CCc1ccc(-n2nc(C)c3c(C)cc(=O)n(CC(=O)Nc4ccccc4C(=O)OC)c32)cc1 | inactive: 76% |
| CCc1cccc(NC(=O)CCS(=O)(=O)c2ccc3nc(C)sc3c2)c1 | inactive: 78% |
| Cc1cccc(-n2ccnc2SCC(=O)Nc2ccc3c(c2)OCO3)c1 | inactive: 83% |
| O=C(Nc1cccc(F)c1)C1CCN(c2nc3ccccc3[nH]2)CC1 | inactive: 87% |
| Cc1nc2c3ccccc3nc(NNC(=O)CCC(=O)N3CCN(c4cccc(C(F)(F)F)c4)CC3)n2n1 | inactive: 84% |
| O=C1C2CCc3[nH]c4ccccc4c3C2C(=O)N1Cc1ccccc1 (stereo not drawn) | inactive: 117% |
| COc1ccc(CNc2ncnc3c2cnn3-c2ccc(C)c(C)c2)cc1 | inactive: 129% |
| NC(=O)N1CCCC1=O | inactive: 97% |
| CCNc1nc(=S)nc(NCc2ccccc2)[nH]1 | inactive: 105% |
| COc1cccc(C(=O)NC2CC(=O)N(c3ccc4c(c3)OCCO4)C2)c1OC (stereo not drawn) | inactive: 153% |
| CCCCSCCCNC(=O)C1CCC(CNS(=O)(=O)c2c(C)cc(C)cc2C)CC1 (stereo not drawn) | inactive: 71% |
| CCOc1ccc(CNC(=O)c2ccc3c(c2)nc2n3CCC(C)C2)cc1OC (stereo not drawn) | inactive: 73% |
| Cc1csc2nc(CCNS(=O)(=O)c3ccc(F)cc3)cn12 | inactive: 60% |
| CC(=O)c1ccc(NC(=O)CCc2c(C)nn(-c3ccc(N4CCCCC4)nn3)c2C)cc1 | inactive: 77% |
| O=C(Nc1ccc2oc(-c3ccc(Cl)cc3)nc2c1)c1ccc2ccccc2c1 | inactive: 86% |
| O=C(CCOc1ccccc1)N(Cc1cccnc1)c1nc2ccc(F)cc2s1 | inactive: 69% |
| CCOC(=O)c1c(NC(=O)c2ccc(OC)c(OC)c2)sc2c1CCCCC2 | inactive: 69% |
